# Assay results reported in the supplement of paper PMC11417369.
# The other results are listed elsewhere or left out.
# Test system: PfSIP2 AP2 domain 1 (GST-tagged)
# Assay: gcPBM binding intensity (ln(normalized median fluorescence intensity)); higher = stronger DNA binding
# Procedure, shortened: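 Binding intensity values are the highest Masliner-normalised natural-log median intensity among replicate spots of either probe orientation. The binding step lasted 1 h in 1× PBS with 1% milk, 0.2 mg/ml BSA, 0.5% salmon testes DNA and 0.03% Triton X-100, using GST-tagged P. falciparum DNA-binding domains expressed in E. coli on an Agilent 4 × 180k array of primer-extended double-stranded 36-bp intergenic genomic probes plus negative controls. Alexa488 anti-GST antibody and a 488 nm scan detected bound protein.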
row,Sequence,gcPBM binding intensity (ln)
1,AGAAATTTACAAATACGTACACACATATATATATAT [XGTACX_site3141],9.61
2,GAAGATATGTAAAATTGTACATATTATTTTATTTTA [XGTACX_site5302],6.88
3,TCATAACAACTTTGTGTGCACATAAAACATGTATAT,8.91
4,TTTTTTTTTTCATTCACACAAAAAAAAAAAATTTAT [CACACA_site5921],6.76
5,TATAAGACATGATATATACACACCTTGTTTTAATTT [CACACA_site2266],6.76
6,TTTTACACTTTTTTTTGTACACACTAAAAAGATTAA [XGTACX_site8407],7.02
7,AAAGGTTCATAAAAATGTACATAATTATTTACATGT [XGTACX_site2722],7.03
8,CAAATCATATATAGCACACAAATTCTTTATTATTAT [CACACA_site2815],6.78
9,CTGATCCACATTTATACACACCTCGGTTTGTAGAGA [CACACA_site4393],6.73
10,AAAATATATAATATTTGTACATATTGATGGCAACAG [XGTACX_site6454],7.05
11,AAGACAACATAAATATGTACATATATTTATTATTTT [XGTACX_site1792],6.94
12,TACAAAAAGAATGAAAAATATATAATAAAAATAAAA [XGTACX_negctrl_site159],6.87
13,CACATACCTATATACACACACAAAATAATAAAATAA [CACACA_site7150],7.32
14,AGAATGGATTAGCTAGCACACACAAAAAAAAAAAAA [CACACA_site8995],6.93
15,ACTAATATTTTATAAAGTACAAATTAATAAAATTCA [XGTACX_site5817],6.98
16,TATATATATATATTGACACACATGTATTTCAATATT [CACACA_site2832],8.96
17,CTTATATATTGCCCTTCACACACACCCATATATATA [CACACA_site8795],7.48
18,AAGTATGGAAAGGAATATAAATTAATACTTTCATTG [XGTACX_negctrl_site131],6.54
19,TTTTGTAGATATGACTGTACATATTTTATACATAAC [XGTACX_site971],7
20,AAAAAATAAATAAATACACACAAATATATATATATA [CACACA_site2543],9.48
21,TGGTAATCCACATACACACACACATACACATATATA [CACACA_site2727],7.31
22,AAGAAAAAAAAAATTACACACTGCGCAGATACACAA [CACACA_site1289],6.72
23,TAATATGTATATAAAAGTACAGACGATTATAATTAT [XGTACX_site173],6.99

row,Sequence,gcPBM binding intensity (ln)
1,ATATATATATGTAAGAGTACACAAAAATATGTATGT [XGTACX_site4335],8.63
2,AGTGGATGAGGACATACACACACACCGAAGTTGATA [CACACA_site9132],6.57
3,AAGGAATATATATACATACACACATATATATATATA [CACACA_site1665],9.23
4,AAAAAAAAAAAAAAAAAAAAAAATATATATATATAT [XGTACX_negctrl_site33],9.32
5,AAATTTTCATGTGTTGCATGCTGAACTATTTTATCA [TGCATGCA_site856],6.75
6,AATAAAAAGGAAAGGTATATGTGTGCCCTTGTGTTA [TGCATGCA_negctrl_site83],7.03
7,TATTTTTTCCTTTGTTTTTTAAACTATCTTAACTAA [XGTACX_negctrl_site519],6.71
8,AAATAAATAAAAAACACACACAAATAAATAAATATA [CACACA_site2249],6.91
9,ATATAATAAATATATTGTACATATGAATCTACTAAA [XGTACX_site7610],6.95
10,TAAAAAATGATAGAAGTGCATAAAATAATATATATA [GTGCAC_site9904],7.91
11,TTTCTATTTCCTTCACATCTTTTCATCTTTTTTTTT [CACACA_negctrl_site1110],6.98
12,GACTTGAAGAAATAAGTGCAGAGTTTTATTTTAATT [GTGCAC_site9912],7.93
13,AAAAAATTCCTATATACACACACGCACATATTTATA [CACACA_site6192],7.13
14,TTTATTAATAAGAAATGTACACAAAATTATTTCCAA [XGTACX_site5970],7.11
15,ATAGAGTCATTCCTCACACACACGCTATATGAATAG [CACACA_site2047],7.04
16,AAAAAATACTTATAAAGTACTAATATATATAAGCAG [XGTACX_site743],7.02
17,TAATTAAAATTAAGAAGTACATTTTACTTTTAATGC [XGTACX_site5120],6.98
18,TATCATGTTTTTATGGTGCATGAAATCACACATTGA,9.32
19,GAGAAATTTATACATACACACATATATATATTATAT [CACACA_site4038],7.16
20,AATACAAACCAAAAAGTAAATACATCAACATGATCA [CACACA_negctrl_site140],6.59
21,TACACCATGATACATACACACAGACATATACTCATT [CACACA_site4708],7.19
22,TCCAAATGTTTGCGTTGTACTCTTTTTTTAAAACTA [XGTACX_site5148],7.09
